Among all 45,000 compounds or so, about 65 (0.1%) were called active. The call rests on the fitted dose curve; in most records, active means well fitted activation curve with a large enough effect; inconclusive means small, poorly fitted or top-dose-only effect; inactive means no such curve, though single readings can be large or run the other way. Some of the results follow.
Each compound was assayed against Galactocerebrosidase (Homo sapiens) (UniProt P54803) (assay: A Novel Cell-Based Assay to Identify Small Molecules for B -Galactocerebrosidase). Details: 145M-Twi-hGALC-G270D cells (Twitcher mouse brain line with human GALC G270D), HMU-beta-Gal fluorescence, 48 h; activation: at the top concentration.
How it was run: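 Mutant human GALC (G270D), stably expressed in a Twitcher mouse brain cell line lacking endogenous GALC, is measured in live-treated cells via 6-hexadecanoylamino-4-methylumbelliferyl-β-galactoside hydrolysis (0.1 mM final, pH 5.2) with fluorescent detection.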
Further: nearly all actives have a fitted effect of over 65% in size.
Potency means the concentration at half of the fitted maximal effect.
Wherever activation is given: 0% is about no effect.

SMILES	activation	Potency
C=C(C)[C@H]1Cc2c(ccc3c2O[C@@H]2COc4cc(OC)c(OC)cc4[C@@H]2C3=O)O1	inactive: -9.92%	
CN(C)c1ccc(NC(=O)c2sc3nc4c(cc3c2N)N2CCC4CC2)cc1	inactive: -1.37%	
COC(=O)C1=CCCN(C)C1	inactive: -6.73%	
Fc1ccc(C(OCCN2CCN(CCCc3ccccc3)CC2)c2ccc(F)cc2)cc1	inactive: -42.5%	
CC(C)(C)NCC(O)c1cc(Cl)c(N)c(Cl)c1 (stereo not drawn)	inactive: -12.3%	
CCCC12CN3CC(C)(CN(C1)C3c1c(C)[nH]c(=O)[nH]c1=O)C2=O (stereo not drawn)	inactive: -17.2%	
CCCC1=Nc2cc(C(=O)NCCCN(CC)CC)ccc2Sc2ccccc21	inactive: -13.9%	
COc1ccc(Br)cc1C1SCC(=O)Nc2c1c(C)nn2-c1ccccc1C (stereo not drawn)	inactive: -14.4%	
Cc1ccc(-c2nn3c(=O)cc(CN4CCN(C(=O)COc5ccc(C)c(C)c5)CC4)nc3s2)cc1	inactive: 3.34%	
O=C(N/N=C/c1ccc([N+](=O)[O-])o1)c1cc([N+](=O)[O-])cc([N+](=O)[O-])c1O	inactive: -16%	
CCC1(CC)C(=O)C=CNC1=O	inactive: -3.19%	
Cc1ccc(-c2nc(CN3C(=O)CN=C(c4ccccc4)c4ccccc43)c(C)o2)cc1	inactive: 6.29%	
CCN(CC)C(=O)c1ccc(NC(=O)c2ccc(-c3nn(C)c(=O)c4ccccc34)cc2)cc1	inactive: 6.72%	
C[C@H](CN1CCOCC1)C(C(=O)N1CCCC1)(c1ccccc1)c1ccccc1	inactive: -0.319% [at 129 µM]	
Cc1ccc(Cn2cccc(C(=O)Nc3ccc4c(c3)OCCO4)c2=O)cc1	inactive: -20.5%	
COc1ccccc1C1SCC(=O)Nc2c1c(C)nn2-c1cccc(C)c1 (stereo not drawn)	inactive: -10.4%	
COc1cccc(NC(=O)c2cccn(Cc3ccccc3C)c2=O)c1	inactive: -22.1%	
COc1ccc(Cc2nccc3cc(OC)c(OC)cc23)cc1OC	inactive: -11.3%	
CC1(C)C(C=C(Cl)Cl)C1C(=O)OC(C#N)c1cccc(Oc2ccccc2)c1 (stereo not drawn)	inactive: -13.3%	
Oc1cc(Cl)ccc1Oc1ccc(Cl)cc1Cl	inactive	
CCn1cc2nc(SCc3c(F)cccc3Cl)n(CCc3ccccc3)c(=O)c2n1	inactive: -37.9%	
CCCCC12CN3CC(C)(CN(C1)C3c1ccccn1)C2=O (stereo not drawn)	inactive: -12.7%	
CCCCCCCCCCCCCCCCCCN(C)C	inactive: -12.7%	

SMILES	activation	Potency
Cc1cc(C)cc(OCC(=O)Nc2ccc(-c3nc4ccccc4s3)cc2)c1		active: 39.8 µM
Cc1cccc(-n2nc(C)c3c2NC(=O)CSC3c2ccccc2Cl)c1 (stereo not drawn)	inactive: 1.85%	
CCN(CC)C(C)C(=O)c1ccccc1 (stereo not drawn)	inactive: -13.7%	
CC(C)Cc1nc2cccnc2n1C1CCNCC1	inactive: 0.14%	
CCOc1ccc(CN(CCc2ccc3c(c2)OCO3)Cc2ccc(C)cc2)cc1	inactive: -27.2%	
O=C(N[C@@H]1N=C(c2ccccc2F)c2cccc3c2N(CC3)C1=O)c1cc2ccccc2[nH]1	inactive: 0.717%	
Cc1ccc(NC(=O)Cn2cc(C(=O)c3ccccc3)c3ccccc32)c(C)c1	inactive: -31.3%	
COc1ccc(-n2c(/C=C/c3cccc(F)c3)nc3ccccc3c2=O)cc1Cl	inactive: -3.72%	
Cc1cccc(CN2C(=O)CN=C(c3ccccc3)c3ccccc32)c1	inactive: -28.6%	
CCC(C)C(C)(COC(N)=O)COC(N)=O (stereo not drawn)	inactive: -19%	
COc1cc(CC#N)cc(OC)c1OC	inactive: -13.1%	
COc1ccc2c3c1O[C@H]1[C@H](O)CC[C@H]4[C@@H](C2)N(C)CC[C@@]341	inactive: -4.38% [at 114 µM]	
COc1cccc(C2SCC(=O)Nc3c2c(C)nn3-c2ccc(C)c(Cl)c2)c1OC (stereo not drawn)	inactive: -9.96%	
CCc1nc(SC)ncc1C(=O)Nc1ccc(Cl)cc1C(=O)c1ccccc1	inactive: -12.3%	
Cc1cccc(-c2nn3c(=O)cc(CN4CCN(C(=O)COc5ccc(Cl)cc5)CC4)nc3s2)c1	inactive: -0.772%	
CC(C)=CCN1CC[C@@]2(C)c3cc(O)ccc3C[C@@H]1[C@@H]2C	inactive: -11.9% [at 114 µM]	
O=S1(=O)N(Cc2ccccc2Cl)CCCN1Cc1ccccc1Cl	inactive: -1.84%	
COc1ccc(NC(=O)CCc2nc(C3=CCN(Cc4cccc(Cl)c4)CC3)no2)c(OC)c1	inactive: -23%	
O=C(Nc1ccc2c(c1)OCO2)c1cccn(Cc2cccc([N+](=O)[O-])c2)c1=O	inactive: -18.7%	
O=[N+]([O-])c1c2ccccc2cc2ccccc12	inactive: -12.1% [at 114 µM]	
Cc1ccccc1OCC(=O)N1CCN(CCc2ccccn2)CC1	inactive: -12.3%	
C1CN2CCC1CC2	inactive: -20.4%	
COP(=S)(OC)SCN1C(=O)c2ccccc2C1=O	inactive: -2.84%	

SMILES	activation	Potency
CC1=C2[C@H]3OC(=O)[C@@H](C)[C@@H]3CC[C@@]2(C)C=CC1=O	inactive: -8.71%	
COc1ccc(OCC(=O)N2CCN(Cc3cc(=O)n4nc(-c5ccc(OC)cc5)sc4n3)CC2)cc1	inactive: 2.52%	
Cc1cccc(Cn2cccc(C(=O)Nc3ccc(F)cc3F)c2=O)c1	inactive: -24%	
Cc1ccc(OCC(=O)N2CCN(CCc3ccncc3)CC2)cc1	inactive: -10.7%	
CC(C)c1ccc(OCC(=O)N2CCN(CCc3ccccn3)CC2)cc1	inactive: -9.56%	
O=C(O)c1ccc2[nH]cc(CCCCN3CC=C(c4ccccc4)CC3)c2c1	inactive: -13.2%	
COc1ccc(OCC(=O)N2CCN(Cc3ccc(SC)cc3)CC2)cc1	inactive: -24.3%	
CCC(CN)=C(c1ccccc1)c1ccccc1	inactive: -12.5%	
O=[N+]([O-])c1cc([As](=O)(O)O)ccc1O	inactive: -16.5%	
O=C(c1ccc2c(c1)N(Cc1ccc(F)cc1)C(=O)c1ccccc1S2)N1CCC2(CC1)OCCO2	inactive: -2.62%	
Cc1ccccc1-n1c(/C=C/c2ccc(N(C)C)cc2)nc2ccccc2c1=O	inactive: -35.8%	
Cc1nnc(NC(=O)c2cccn(Cc3cccc(F)c3)c2=O)s1	inactive: -9.53%	
CCOc1ccc(CC(=O)NCCc2csc3nc(-c4ccccc4F)nn23)cc1	inactive: -35.2%	
CC1N=C(N)OC1c1ccccc1 (stereo not drawn)	inactive: 7.25% [at 114 µM]	
Cc1ccc(OCC(=O)Nc2ccc(Cl)cc2C(=O)c2ccccc2)cc1C	inactive: -5.09%	
C[C@]12CC[C@@H]3c4ccc(OC(=O)N(CCCl)CCCl)cc4CC[C@H]3[C@@H]1CC[C@@H]2O	inactive: -6.75%	
CCCCCCCCc1ccc(O)cc1	inactive: -6.53% [at 114 µM]	
COc1cccc(-c2nn3c(=O)cc(CN4CCN(C(=O)COc5ccccc5C)CC4)nc3s2)c1	inactive: -9.32%	
CCOc1ccc2nc(NC(=O)c3cccn(Cc4ccccc4Cl)c3=O)sc2c1	inactive: -14.3%	
CCOc1ccc(CN(CCc2ccc3c(c2)OCO3)Cc2ccc(OC)c(Br)c2)cc1	inactive: -20.2%	
O=C(O)CCCCCCNC1c2ccccc2CCc2ccccc21	inactive: -14.8%	
COc1cccc2c1C(=O)c1c(O)c3c(c(O)c1C2=O)C[C@@](O)(C(=O)CO)CC3OC1CC(N2CCOC(OC)C2)C(O)C(C)O1 (stereo partly drawn)	inactive: -27.2%	
